Assay results reported in PubChem BioAssay AID588855 (National Center for Advancing Translational Sciences (NCATS), 2011).
Out of some 410,000 compounds screened, about 5,000 (1.2%) were called active. Inconclusive results, whose numbers are uncertain, are shown with a selection of clear calls. The call rests on the fitted dose curve; in most records, active means well fitted inhibition curve with a large enough effect; inconclusive means small, poorly fitted or top-dose-only effect; inactive means no such curve, though single readings can be large or run the other way. A potency beside an inconclusive call is a rough fit, not a confirmed value.

experiment: qHTS for Inhibitors of TGF-b; conditions: HepG2 CAGA-GFP TGF-b/SMAD3 reporter, GFP fluorescence, 18 h, TGF-beta stimulated, 500 pg/mL final; series mostly up to 46.1 µM; activity, negative = inhibition: at the top concentration; further: nearly all actives have a fitted effect of over 65% in size
Procedure, shortened: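 HEPG2 CAGA-GFP cells (1000/well, DMEM with 1% FBS) were pre-incubated 2 h at 37 degrees C, given compound by pin tool, then stimulated with TGF-beta at 500 pg/mL final for 18 h before per-cell GFP fluorescence imaging.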
On the % scale 0 is the no-effect control and ±100 the full control effect; potency means the concentration at half of the fitted maximal effect; tags describe the fitted curve by direction and shape.

For `CCc1ccc(NC(=O)CCS(=O)(=O)c2ccc3c(c2)CCN3C(C)=O)cc1`, which Potency is on record?
Its Potency is inconclusive: 20 µM [inhibitor, single point].

Which Potency does the source give for `CCc1ccccc1NC(=O)CN1CCN(C(=O)CNC(=O)Cc2cccc3ccccc23)CC1` here?
The Potency was inconclusive: 10 µM [inhibitor, partial curve, poor fit].

For `O=C(NCc1ccccc1Cl)C(=O)NCC1OCCN1S(=O)(=O)c1cccs1` (stereo not given), which Potency is on record?
Its Potency is inconclusive: 3.55 µM [inhibitor, full curve, poor fit].

Which “activity, negative = inhibition” value does the source give for `Cc1nn(Cc2ccccc2)c(C)c1NC(=O)CCCn1nc(C)c([N+](=O)[O-])c1C` here?
The value was inactive: -1.71%.

For `Cc1nc2c(-c3ccc(F)cc3)c(C)nn2c(C)c1CCC(=O)N1CCC(Cc2ccccc2)CC1`, which Potency is on record?
Its Potency is inconclusive: 35.5 µM [inhibitor, single point].

With `COc1ccc(NS(=O)(=O)c2cc(NC(=O)C3CCCO3)ccc2N2CCCCC2)cc1` (stereo not given) as the molecule, how does the Potency read?
Its Potency is inconclusive: 5.62 µM [inhibitor, partial curve].

For `COc1ccc(NC(=O)c2ccc3c(=O)n(Cc4ccco4)c(=S)[nH]c3c2)c(OC)c1`, which “activity, negative = inhibition” value is on record?
The value was inactive: 0.0928%.

With `CCOc1ccc(C(=O)NCC(c2cccs2)N(C)C)cc1` (stereo not given) as the molecule, how does the “activity, negative = inhibition” value read?
Its value is inactive: -0.36%.

With `FC(F)(F)c1ccccc1Cc1c(C2CCCCC2)nc2ccc(Br)cn12` as the molecule, how does the Potency read?
Its Potency is inconclusive: 35.5 µM [inhibitor, single point].

With `CCn1c(=O)c2cc(C(=O)N3CCN(c4cccc(Cl)c4)CC3)sc2c2ccccc21` as the molecule, how does the Potency read?
Its Potency is inconclusive: 3.98 µM [inhibitor, partial curve, poor fit].

Which “activity, negative = inhibition” value does the source give for `CCc1ccc2[nH]c3nc(N/N=C/c4ccc(O)cc4O)nnc3c2c1` here?
The value was inactive: -13%.

Which “activity, negative = inhibition” value does the source give for `COCCNC(=O)C1CCCN(C(=O)c2sccc2C)CC1` (stereo not given) here?
Its value is inactive: 3.26%.

Which Potency does the source give for `CCCN(Cc1nnc(-c2ccccc2Cl)o1)C(=O)c1ccc(C)c(S(=O)(=O)N2CCOCC2)c1` here?
The Potency was inconclusive: 35.5 µM [inhibitor, single point].

With `Cc1ccc(-c2noc(CNc3ccccc3)n2)cc1` as the molecule, how does the Potency read?
The Potency was inconclusive: 14.1 µM [inhibitor, single point].

Which Potency does the source give for `COc1cc(Cl)ccc1OCc1cc(C(=O)NCC(C)c2ccccc2)no1` (stereo not given) here?
The Potency was inconclusive: 20 µM [inhibitor, single point].

Which Potency does the source give for `COc1cc(CN(C(=O)c2ccccc2[N+](=O)[O-])c2ccccn2)cc(OC)c1OC` here?
Its Potency is inconclusive: 0.562 µM [inhibitor, full curve, poor fit].

For `COc1ccccc1C1CC(c2cccs2)=Nc2ccccc2S1` (stereo not given), which Potency is on record?
Its Potency is inconclusive: 7.08 µM [inhibitor, partial curve, poor fit].

Which “activity, negative = inhibition” value does the source give for `O=C(NNC(=S)NC(=O)c1ccccc1[N+](=O)[O-])c1ccc(Cl)cc1Cl` here?
Its value is inactive: 9.7%.

With `CC1(C(=O)NC(=S)NNC(=O)c2ccncc2)CCCCC1` as the molecule, how does the Potency read?
The Potency was inconclusive: 35.5 µM [inhibitor, single point].

With `CCOc1cc(S(=O)(=O)Nc2cc(C)cc(C)c2)ccc1Cl` as the molecule, how does the Potency read?
The Potency was active: 22.4 µM.

For `C=CCNCCCOc1ccc(C(C)(C)c2ccccc2)cc1`, which “activity, negative = inhibition” value is on record?
The value was inactive: -20.2%.

Which Potency does the source give for `O=C(CN1CCCCCC1)N1c2ccccc2Sc2ccccc21` here?
Its Potency is inconclusive: 20 µM [inhibitor, single point].

For `CC12CC3(C)CC(C)(C1)CC(C(=O)NC1=NCCS1)(C2)C3`, which Potency is on record?
Its Potency is inconclusive: 35.5 µM [inhibitor, single point].

With `C/C(=N\NS(=O)(=O)c1ccccc1)c1ccc2c(c1)OCCO2` as the molecule, how does the “activity, negative = inhibition” value read?
Its value is inactive: 10.5%.

With `CCOC(=O)C1=C(C)NC2=C(C(=O)CCC2)C1c1cccnc1` (stereo not given) as the molecule, how does the “activity, negative = inhibition” value read?
Its value is inactive: 10%.

Which “activity, negative = inhibition” value does the source give for `COCCCNC(=O)C1CCN(C(=O)c2cc3sccc3n2Cc2ccc(F)cc2)CC1` here?
Its value is inactive: 0.743%.

Which Potency does the source give for `O=C1CN(C(=O)c2ccccc2Br)C(c2ccc(F)cc2)c2cc(F)ccc2N1` (stereo not given) here?
The Potency was inconclusive: 15.8 µM [inhibitor, single point].

With `COc1ccccc1C(c1nnnn1C(C)(C)C)N1CCCCCC1` (stereo not given) as the molecule, how does the Potency read?
The Potency was inconclusive: 35.5 µM [inhibitor, partial curve, poor fit].

Which Potency does the source give for `CC1CCCN(C(C(=O)Nc2ccc3c(c2)OCO3)c2ccccc2)C1` (stereo not given) here?
The Potency was inconclusive: 11.2 µM [inhibitor, partial curve].

For `CCCCCCSc1cccc(-c2nc3ccc(C)cn3c2NCc2ccccc2)c1`, which Potency is on record?
Its Potency is inconclusive: 15.8 µM [inhibitor, single point].

With `CCc1nnc(SCC(=O)N(C)c2ccccc2)c2cc3sccc3n12` as the molecule, how does the Potency read?
The Potency was inconclusive: 17.8 µM [inhibitor, single point].

Which Potency does the source give for `CCCCn1c(-c2ccncc2)nc2c1c(=O)[nH]c(=O)n2CC(C)C` here?
Its Potency is inconclusive: 6.31 µM [inhibitor, single point].

For `CC(C)NC(=O)NC(=O)CSc1nnc(COc2ccccc2Cl)o1`, which Potency is on record?
Its Potency is inconclusive: 0.501 µM [inhibitor, partial curve, poor fit].

With `COc1ccc(CN(C)C(=O)C(Cc2ccccc2)NC(=O)c2ccccc2)c(OC)c1` (stereo not given) as the molecule, how does the “activity, negative = inhibition” value read?
Its value is inactive: 1.86%.

For `CCOC(=O)c1c(NC(=O)CCN2C(=O)c3cccc([N+](=O)[O-])c3C2=O)sc(C(=O)OC(C)C)c1C`, which Potency is on record?
The Potency was inconclusive: 35.5 µM [inhibitor, single point].

With `O=C1N=c2ccccc2=C1c1c(O)n(-c2cccc(F)c2)[nH]c1=O` as the molecule, how does the “activity, negative = inhibition” value read?
The value was inactive: 18.9%.

With `CCOc1ccc(C(C(=O)NC2CCCC2)N(CCCO)C(=O)c2ccc(-c3ccccc3)[nH]2)cc1` (stereo not given) as the molecule, how does the “activity, negative = inhibition” value read?
Its value is inactive: -22%.

For `COC(=O)c1ccccc1NC(=S)NC(=O)c1cccc2ccccc12`, which Potency is on record?
The Potency was inconclusive: 5.62 µM [inhibitor, single point].

For `CCOC(=O)c1cc(-c2ccccc2)sc1NC(=O)C(C)OC(=O)c1ccncc1` (stereo not given), which “activity, negative = inhibition” value is on record?
Its value is inactive: -2.63%.

Which Potency does the source give for `CC1(C(=O)NCc2ccccc2Br)CCN1Cc1ccccc1OC(F)F` (stereo not given) here?
Its Potency is inconclusive: 11.2 µM [inhibitor, single point].

Which “activity, negative = inhibition” value does the source give for `CCCS(=O)(=O)NC(=O)C1(C)CCCN(C(=O)c2ccco2)C1` (stereo not given) here?
Its value is inactive: 44.6%.

Which Potency does the source give for `Cc1ccc(C)c(N2N=C(C(=O)Nc3ccccc3N3CCCC3)CCC2=O)c1` here?
The Potency was active: 22.4 µM.

For `Nc1ccc(Cn2ccc3c4c(N)nc(N)nc4ccc32)cc1`, which Potency is on record?
The Potency was inconclusive: 20 µM [inhibitor, single point].

Which “activity, negative = inhibition” value does the source give for `COc1ccc(C(=O)N2CCC(CCC(=O)Nc3cccc(C)c3)CC2)cc1` here?
The value was inactive: 0%.

For `CN(C)c1ccc(/C=C/C(=O)c2ccc(O)cc2)cc1[N+](=O)[O-]`, which Potency is on record?
Its Potency is inconclusive: 28.2 µM [inhibitor, single point].
